# Some of the results follow.
# Key:
# Assay in all cases: glycan array binding signal (z-score within array); higher = stronger binding
# Conditions in all cases: glycan notation: IUPAC condensed, linker removed
# [1] = target: Neu5Ac(a2-3)Gal(b1-4)GlcNAc(b1-2)[Neu5Ac(a2-3)Gal(b1-4)GlcNAc(b1-6)]Man(a1-6)[Neu5Ac(a2-3)Gal(b1-4)GlcNAc(b1-2)Man(a1-3)][GlcNAc(b1-4)]Man(b1-4)GlcNAc(b1-4)GlcNAc
# Procedure, shortened: (§1)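 Glycan array data came from 3228 arrays in the Consortium for Functional Glycomics database, and only arrays with an available protein sequence were kept. Glycan names were put into IUPAC-condensed notation, and columns mapping to the same glycan were averaged. The binding signal is a within-array Z-score, averaged across arrays of one protein sequence run at different concentrations or buffers and across linkers. A negative Z-score can be read as non-binding.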
# [2] = target: Neu5Ac(a2-3)Gal(b1-4)GlcNAc(b1-3)Gal
# Procedure, shortened: as §1
# [3] = target: Neu5Ac(a2-3)Gal(b1-4)GlcNAc(b1-3)Gal(b1-3)GlcNAc
# Procedure, shortened: as §1
# [4] = target: Neu5Ac(a2-3)Gal(b1-4)GlcNAc(b1-3)Gal(b1-4)GlcNAc
# Procedure, shortened: as §1
# [5] = target: Neu5Ac(a2-3)Gal(b1-4)GlcNAc(b1-3)Gal(b1-4)GlcNAc(b1-2)Man(a1-3)[Neu5Ac(a2-3)Gal(b1-4)GlcNAc(b1-3)Gal(b1-4)GlcNAc(b1-2)Man(a1-6)]Man(b1-4)GlcNAc(b1-4)GlcNAc
# Procedure, shortened: as §1
# [6] = target: Neu5Ac(a2-3)Gal(b1-4)GlcNAc(b1-3)Gal(b1-4)GlcNAc(b1-3)Gal(b1-4)GlcNAc
# Procedure, shortened: as §1
# [7] = target: Neu5Ac(a2-3)Gal(b1-4)GlcNAc(b1-3)Gal(b1-4)GlcNAc(b1-3)Gal(b1-4)GlcNAc(b1-2)Man(a1-3)[Neu5Ac(a2-3)Gal(b1-4)GlcNAc(b1-3)Gal(b1-4)GlcNAc(b1-3)Gal(b1-4)GlcNAc(b1-2)Man(a1-6)]GalNAc
# Procedure, shortened: as §1
# [8] = target: Neu5Ac(a2-3)Gal(b1-4)GlcNAc(b1-3)Gal(b1-4)GlcNAc(b1-3)GalNAc
# Procedure, shortened: as §1
# [9] = target: Neu5Ac(a2-3)Gal(b1-4)GlcNAc(b1-3)Gal(b1-4)GlcNAc(b1-3)[Neu5Ac(a2-3)Gal(b1-4)GlcNAc(b1-3)Gal(b1-4)GlcNAc(b1-6)]GalNAc
# Procedure, shortened: as §1
# [10] = target: Neu5Ac(a2-3)Gal(b1-4)GlcNAc(b1-3)Gal(b1-4)GlcNAc(b1-6)[Gal(b1-3)]GalNAc
# Procedure, shortened: as §1
# [11] = target: Neu5Ac(a2-3)Gal(b1-4)GlcNAc(b1-3)Gal(b1-4)[Fuc(a1-3)]GlcNAc
# Procedure, shortened: as §1
# [12] = target: Neu5Ac(a2-3)Gal(b1-4)GlcNAc(b1-3)GalNAc
# Procedure, shortened: as §1
# [13] = target: Neu5Ac(a2-3)Gal(b1-4)GlcNAc(b1-3)[Neu5Ac(a2-3)Gal(b1-4)GlcNAc(b1-6)]GalNAc
# Procedure, shortened: as §1
# [14] = target: Neu5Ac(a2-3)Gal(b1-4)GlcNAc(b1-6)GalNAc
# Procedure, shortened: as §1
# [15] = target: Neu5Ac(a2-3)Gal(b1-4)GlcNAc(b1-6)[Gal(b1-3)]GalNAc
# Procedure, shortened: as §1
# [16] = target: Neu5Ac(a2-3)Gal(b1-4)GlcNAc(b1-6)[Neu5Ac(a2-3)Gal(b1-3)]GalNAc
# Procedure, shortened: as §1
# [17] = target: Neu5Ac(a2-3)Gal(b1-4)GlcNAc6S
# Procedure, shortened: as §1
# [18] = target: Neu5Ac(a2-3)Gal(b1-4)[Fuc(a1-3)]GlcNAc
# Procedure, shortened: as §1
# [19] = target: Neu5Ac(a2-3)Gal(b1-4)[Fuc(a1-3)]GlcNAc(b1-2)Man
# Procedure, shortened: as §1
# [20] = target: Neu5Ac(a2-3)Gal(b1-4)[Fuc(a1-3)]GlcNAc(b1-3)Gal
# Procedure, shortened: as §1
# [21] = target: Neu5Ac(a2-3)Gal(b1-4)[Fuc(a1-3)]GlcNAc(b1-3)Gal(b1-4)GlcNAc
# Procedure, shortened: as §1
# [22] = target: Neu5Ac(a2-3)Gal(b1-4)[Fuc(a1-3)]GlcNAc(b1-3)Gal(b1-4)[Fuc(a1-3)]GlcNAc(b1-3)Gal(b1-4)[Fuc(a1-3)]GlcNAc
# Procedure, shortened: as §1
# [23] = target: Neu5Ac(a2-3)Gal(b1-4)[Fuc(a1-3)]GlcNAc(b1-3)GalNAc
# Procedure, shortened: as §1
# [24] = target: Neu5Ac(a2-3)Gal(b1-4)[Fuc(a1-3)]GlcNAc(b1-6)[Gal(b1-3)]GalNAc
# Procedure, shortened: as §1
# [25] = target: Neu5Ac(a2-3)Gal(b1-4)[Fuc(a1-3)]GlcNAc(b1-6)[Neu5Ac(a2-3)Gal(b1-3)]GalNAc
# Procedure, shortened: as §1
# [26] = target: Neu5Ac(a2-3)Gal(b1-4)[Fuc(a1-3)]GlcNAc6S
# Procedure, shortened: as §1
# [27] = target: Neu5Ac(a2-3)Gal6S(b1-4)GlcNAc
# Procedure, shortened: as §1
# [28] = target: Neu5Ac(a2-3)Gal6S(b1-4)[Fuc(a1-3)]GlcNAc
# Procedure, shortened: as §1
# [29] = target: Neu5Ac(a2-3)GalNAc
# Procedure, shortened: as §1
# [30] = target: Neu5Ac(a2-3)GalNAc(b1-4)GlcNAc
# Procedure, shortened: as §1
# [31] = target: Neu5Ac(a2-3)[GalNAc(b1-4)]Gal(b1-4)Glc
# Procedure, shortened: as §1
# [32] = target: Neu5Ac(a2-3)[GalNAc(b1-4)]Gal(b1-4)GlcNAc
# Procedure, shortened: as §1
# [33] = target: Neu5Ac(a2-3)[GalNAc(b1-4)]Gal(b1-4)GlcNAc(b1-3)GalNAc
# Procedure, shortened: as §1
# [34] = target: Neu5Ac(a2-3)[Neu5Ac(a2-6)]GalNAc
# Procedure, shortened: as §1
# [35] = target: Neu5Ac(a2-6)Gal
# Procedure, shortened: as §1
# [36] = target: Neu5Ac(a2-6)Gal(b1-3)GlcNAc(b1-3)[Gal(b1-4)GlcNAc(b1-6)]Gal(b1-4)Glc
# Procedure, shortened: as §1
# [37] = target: Neu5Ac(a2-6)Gal(b1-4)Glc
# Procedure, shortened: as §1
# [38] = target: Neu5Ac(a2-6)Gal(b1-4)GlcNAc
# Procedure, shortened: as §1
# [39] = target: Neu5Ac(a2-6)Gal(b1-4)GlcNAc(b1-2)Man
# Procedure, shortened: as §1
# [40] = target: Neu5Ac(a2-6)Gal(b1-4)GlcNAc(b1-2)Man(a1-3)Man(b1-4)GlcNAc(b1-4)GlcNAc
# Procedure, shortened: as §1
# [41] = target: Neu5Ac(a2-6)Gal(b1-4)GlcNAc(b1-2)Man(a1-3)[Gal(b1-4)GlcNAc(b1-2)Man(a1-6)]Man(b1-4)GlcNAc(b1-4)GlcNAc
# Procedure, shortened: as §1
# [42] = target: Neu5Ac(a2-6)Gal(b1-4)GlcNAc(b1-2)Man(a1-3)[GlcNAc(b1-2)Man(a1-6)]Man(b1-4)GlcNAc(b1-4)GlcNAc
# Procedure, shortened: as §1
# [43] = target: Neu5Ac(a2-6)Gal(b1-4)GlcNAc(b1-2)Man(a1-3)[GlcNAc(b1-4)][Neu5Ac(a2-6)Gal(b1-4)GlcNAc(b1-2)Man(a1-6)]Man(b1-4)GlcNAc(b1-4)GlcNAc
# Procedure, shortened: as §1
# [44] = target: Neu5Ac(a2-6)Gal(b1-4)GlcNAc(b1-2)Man(a1-3)[Man(a1-6)]Man(b1-4)GlcNAc(b1-4)GlcNAc
# Procedure, shortened: as §1
# [45] = target: Neu5Ac(a2-6)Gal(b1-4)GlcNAc(b1-2)Man(a1-3)[Neu5Ac(a2-3)Gal(b1-4)GlcNAc(b1-2)Man(a1-6)]Man(b1-4)GlcNAc(b1-4)GlcNAc
# Procedure, shortened: as §1
# [46] = target: Neu5Ac(a2-6)Gal(b1-4)GlcNAc(b1-2)Man(a1-3)[Neu5Ac(a2-6)Gal(b1-4)GlcNAc(b1-2)Man(a1-6)]Man(b1-4)GlcNAc(b1-4)GlcNAc
# Procedure, shortened: as §1
# [47] = target: Neu5Ac(a2-6)Gal(b1-4)GlcNAc(b1-2)Man(a1-3)[Neu5Ac(a2-6)Gal(b1-4)GlcNAc(b1-2)Man(a1-6)]Man(b1-4)GlcNAc(b1-4)[Fuc(a1-6)]GlcNAc
# Procedure, shortened: as §1
# [48] = target: Neu5Ac(a2-6)Gal(b1-4)GlcNAc(b1-2)Man(a1-6)Man(b1-4)GlcNAc(b1-4)GlcNAc
# Procedure, shortened: as §1
# [49] = target: Neu5Ac(a2-6)Gal(b1-4)GlcNAc(b1-2)Man(a1-6)[Gal(b1-4)GlcNAc(b1-2)Man(a1-3)]Man(b1-4)GlcNAc(b1-4)GlcNAc
# Procedure, shortened: as §1
# [50] = target: Neu5Ac(a2-6)Gal(b1-4)GlcNAc(b1-2)Man(a1-6)[GlcNAc(b1-2)Man(a1-3)]Man(b1-4)GlcNAc(b1-4)GlcNAc
# Procedure, shortened: as §1
# [51] = target: Neu5Ac(a2-6)Gal(b1-4)GlcNAc(b1-2)Man(a1-6)[Man(a1-3)]Man(b1-4)GlcNAc(b1-4)GlcNAc
# Procedure, shortened: as §1
# [52] = target: Neu5Ac(a2-6)Gal(b1-4)GlcNAc(b1-2)[Neu5Ac(a2-6)Gal(b1-4)GlcNAc(b1-4)]Man(a1-3)[GlcNAc(b1-4)][Neu5Ac(a2-6)Gal(b1-4)GlcNAc(b1-2)[Neu5Ac(a2-6)Gal(b1-4)GlcNAc(b1-6)]Man(a1-6)]Man(b1-4)GlcNAc(b1-4)GlcNAc
# Procedure, shortened: as §1
# [53] = target: Neu5Ac(a2-6)Gal(b1-4)GlcNAc(b1-2)[Neu5Ac(a2-6)Gal(b1-4)GlcNAc(b1-4)]Man(a1-3)[GlcNAc(b1-4)][Neu5Ac(a2-6)Gal(b1-4)GlcNAc(b1-4)Man(a1-6)]Man(b1-4)GlcNAc(b1-4)GlcNAc
# Procedure, shortened: as §1
binder,measurement,setting,value
GSL-I (Griffonia simplicifolia) (protein) FNLPNFWSDVKDNIIFQGDANTTAGTLQLCKTNQYGNPLQYRAGRALYSDPVQLWDNKTGSVASFYTEFTFFLKITGDGPADGLAFFLAPPDSDVKDAGAYLGLFNKSTATQPSKNQVVAVEFDTWKNTDFPEPSYRHIGINVNSIVSVATKRWEDSDIFSGKIATARISYDGSAKILTVVLSYPDGADYILSHSVDLSKNLPNPIRVGISASTGANQFLTVYVLSWRFSSALQSTSVNAAMGPEIIRTVV,glycan array binding signal (z-score),[1],-0.315
same,glycan array binding signal (z-score),[2],-0.286
same,glycan array binding signal (z-score),[3],-0.257
same,glycan array binding signal (z-score),[4],-0.155
same,glycan array binding signal (z-score),[5],0.912
same,glycan array binding signal (z-score),[6],-0.261
same,glycan array binding signal (z-score),[7],2.34
same,glycan array binding signal (z-score),[8],-0.304
same,glycan array binding signal (z-score),[9],0.139
same,glycan array binding signal (z-score),[10],0.089
same,glycan array binding signal (z-score),[11],-0.249
same,glycan array binding signal (z-score),[12],-0.241
same,glycan array binding signal (z-score),[13],-0.301
same,glycan array binding signal (z-score),[14],-0.325
same,glycan array binding signal (z-score),[15],-0.143
same,glycan array binding signal (z-score),[16],-0.083
same,glycan array binding signal (z-score),[17],-0.306
same,glycan array binding signal (z-score),[18],-0.24
same,glycan array binding signal (z-score),[19],-0.227
same,glycan array binding signal (z-score),[20],-0.296
same,glycan array binding signal (z-score),[21],-0.165
same,glycan array binding signal (z-score),[22],-0.137
same,glycan array binding signal (z-score),[23],-0.023
same,glycan array binding signal (z-score),[24],-0.095
same,glycan array binding signal (z-score),[25],-0.15
same,glycan array binding signal (z-score),[26],-0.263
same,glycan array binding signal (z-score),[27],-0.252
same,glycan array binding signal (z-score),[28],-0.274
same,glycan array binding signal (z-score),[29],-0.229
same,glycan array binding signal (z-score),[30],-0.273
same,glycan array binding signal (z-score),[31],-0.193
same,glycan array binding signal (z-score),[32],-0.205
same,glycan array binding signal (z-score),[33],0.328
same,glycan array binding signal (z-score),[34],-0.202
same,glycan array binding signal (z-score),[35],-0.241
same,glycan array binding signal (z-score),[36],-0.136
same,glycan array binding signal (z-score),[37],-0.17
same,glycan array binding signal (z-score),[38],-0.173
same,glycan array binding signal (z-score),[39],-0.174
same,glycan array binding signal (z-score),[40],-0.209
same,glycan array binding signal (z-score),[41],-0.107
same,glycan array binding signal (z-score),[42],-0.156
same,glycan array binding signal (z-score),[43],-0.236
same,glycan array binding signal (z-score),[44],-0.184
same,glycan array binding signal (z-score),[45],-0.19
same,glycan array binding signal (z-score),[46],-0.183
same,glycan array binding signal (z-score),[47],-0.304
same,glycan array binding signal (z-score),[48],-0.248
same,glycan array binding signal (z-score),[49],0.106
same,glycan array binding signal (z-score),[50],-0.103
same,glycan array binding signal (z-score),[51],-0.244
same,glycan array binding signal (z-score),[52],-0.313
same,glycan array binding signal (z-score),[53],-0.291

# Source: the supplement of paper PMC8728848
